Among the data in publication PMC12136788 are binding signal values, retold here.

The other results are listed elsewhere or left out.

T1: UNK ZnF1-3 (human, UniProt Q9C0B0 31-174)
T1 sequence: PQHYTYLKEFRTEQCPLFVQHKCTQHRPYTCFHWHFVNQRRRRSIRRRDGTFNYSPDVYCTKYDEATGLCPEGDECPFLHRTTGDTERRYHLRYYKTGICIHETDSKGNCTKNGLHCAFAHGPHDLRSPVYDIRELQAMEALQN

B1: chr2:101883234:101883235:+_ENSG00000158435_ENST00000289382|hu_hu|motif|central (ssRNA)
RNA: GGGAGUUCUACAGUCCGACGAUCGAAAUACUCAGUGAUCUGGCUUGACUGCAUUAAUUUCAGCAACAUUUCUAUAGCGACGGAAGGGUUGUUUUCCACAAGGUCAGGAAGUUUGGCUGGGGUGAGGCCAAUAUGGUAGACAAGCAACAGAGGAUUGAGCAUCA
B2: chr4:4691572:4691573:-_ENSMUSG00000066324_ENSMUST00000084949|mus_hu|FALSE|FALSE (ssRNA)
RNA: GGGAGUUCUACAGUCCGACGAUCACCAUAGAUUAGGUUUAUUUUAUACAACAGUUACAAGACAGACCUUUUGUAGGCAUAUAAAUACAUCUUAAAUUCAAUCAAGAUCUAAAAUGAAAAAUUAUUUUUUCUUUCUAGGAUCAACAACAGAGGAUUGAGCAUCA
B3: chr17:60770872:60770873:+_ENSG00000011028_ENST00000303375|hu_hu|hu_hu_hu_mus_True|1_108 (ssRNA)
RNA: GGGAGUUCUACAGUCCGACGAUCUCUCUUUUCUUUUAAAAAAAAAGACAAACAAUAAUAGCACAUUUCGAGAAUCAAGAACUACAAUAGAGGGUCCGCUUUGAGUUUUUGUUCACAUCGUCCUGCACUGGGACACGACCAGGACAACAGAGGAUUGAGCAUCA
B4: chr9:130210260:130210261:-_ENSG00000197958_ENST00000361436|hu_mus|motif|central (ssRNA)
RNA: GGGAGUUCUACAGUCCGACGAUCGCCCACAGACUGUGCAGUACCCAGGAUCUCCUUGAUAGUUCCAGAAAGUUCUCGGGCCAAAGACCGGUGUCUCAUCUGCCGGGCAAUGUUGACAAUCUCAUCAAAAGUAAUGUUCCCACUCAACAGAGGAUUGAGCAUCA
B5: chrX:154448470:154448471:+_ENSG00000155959_ENST00000286428|hu_hu|FALSE|FALSE (ssRNA)
RNA: GGGAGUUCUACAGUCCGACGAUCAUCCAGCUUCUUUAAUACUGUAUCUGCAGUCUCAUUCCCAGGCUGUUUCAUGAAGGAAUCUACAUCUUCCACAAACACGGCCUCAGGAAUCCCCAGGUGGAGCCGCCGCCCAUUCCCUGUCAACAGAGGAUUGAGCAUCA
B6: chr10:20042908:20042909:+_ENSMUSG00000037608_ENSMUST00000043881|mus_hu|motif|central (ssRNA)
RNA: GGGAGUUCUACAGUCCGACGAUCGGAACGUGAACGACCUCGUCUAGGACUCCUAGAGUGCCUUCUAUUCCAGACAGGUCGGUAACCACCUCGAUGAUAUCUACCUCCUCCUCCUUGAUAAUACCCUCUACCCCUUCCUCUGUACAACAGAGGAUUGAGCAUCA
B7: chr8:59359966:59359967:+_ENSG00000215114_ENST00000399598|hu_mus|FALSE|FALSE (ssRNA)
RNA: GGGAGUUCUACAGUCCGACGAUCCGCAAAUUCAGGACGUGACCGUACUAUAAAGUCUCGUACAUCCAGAAUCCGGUGUGUGCUAUUGAAUCUCUGUACGAGACGACUUCCAUCUGCCAACCUGAUCUGAAUUUUUGUGGUGGGCAACAGAGGAUUGAGCAUCA
B8: chrX:119387588:119387589:+_ENSG00000177485_ENST00000326624|hu_mus|motif|central (ssRNA)
RNA: GGGAGUUCUACAGUCCGACGAUCUGAUAUGCUUUUAACCUGUGACAGUGGGACACCAAGCUCUGCUAUAAAUUUCACGCCGGGUAACUGCCCUGAUUUAAUUAACUCGUCAAGCAAAUCUGCUCUAACACGGACAACUUUGGACAACAGAGGAUUGAGCAUCA
B9: chr4:138441076:138441077:-_ENSG00000189184_ENST00000507846|hu_mus|FALSE|FALSE (ssRNA)
RNA: GGGAGUUCUACAGUCCGACGAUCGGAUAAAUCAGACAAAAUUGCAGUAACAAAAAAAGUGACUUUAUAAAUGUUCAUAUGCUAAAAAUACAAGCAAAACUGUGAUAGCAUGCACAAGAGACAAAAGCUAAAGGUGAAUAAUUACAACAGAGGAUUGAGCAUCA
B10: chr1:59924863:59924864:+_ENSMUSG00000067336_ENSMUST00000087435|mus_mus|motif|central (ssRNA)
RNA: GGGAGUUCUACAGUCCGACGAUCGUUGCCAAAUUUUAGCCGGGGUUCUUUUGUUGAAUUUUUGGUGUUCAAAGGCAAACGGGUAGGUCUCUUAGGAAGGUUCUGUUGCUUAGGGAGAGGAUAGAUCUGAGCAGGUGGAACAUCCAACAGAGGAUUGAGCAUCA
B11: chr15:76911001:76911002:-_ENSMUSG00000033565_ENSMUST00000166610|mus_hu|FALSE|FALSE (ssRNA)
RNA: GGGAGUUCUACAGUCCGACGAUCAAGAGCAUGACAAAAUAAAAACACACAAAUUUACGUCUGAUGUUCACCUUGCCCACUAUUUUUUUUUCCUAUCUUAAAACAGUGCAAACAGGUAACUUAUGCUUUUAAAACACCACGACCCAACAGAGGAUUGAGCAUCA
B12: chr7:44244176:44244177:+_ENSG00000106636_ENST00000223369|hu_mus|hu_hu_hu_mus_False|48_98 (ssRNA)
RNA: GGGAGUUCUACAGUCCGACGAUCACUGUCGCUCCGGACGUAGACGUGGCAAAGAUACUCUUGUUCUUUGACAGAAGCUCUGCUGCCUUUCGAUGAGCGUUCCACAAUCAGUUGACUUGUAAAGGUCAUGAAUUCCUGCACACUCAACAGAGGAUUGAGCAUCA
B13: chr8:22470488:22470489:+_ENSG00000158941_ENST00000522599|hu_hu|FALSE|FALSE (ssRNA)
RNA: GGGAGUUCUACAGUCCGACGAUCUGACCCAUCACCAACAGUAAGAAACCACAUUGUUAUAUGUAUUCAAUACAAACUGAACUAAAAGAACUGGAAACAAUCGAAAUCCCUCACAUUCAAUAAAUGGAAAAAGAAUCCAUGCUACAACAGAGGAUUGAGCAUCA
B14: chr2:140009677:140009678:+_ENSMUSG00000027384_ENSMUST00000044825|mus_mus|motif|central (ssRNA)
RNA: GGGAGUUCUACAGUCCGACGAUCGCUGCUAACCACCAGGUCAAACGUGUUUUCUUGGAAGGGAAGGAAUUCUUCAUCAGCGGAAAUAUUCACAGUAGGAAUAUCUGUUUCUAAAGAAUUUUUCAAAGCAUGCUCUGCAAUGUCCAACAGAGGAUUGAGCAUCA
B15: chr21:34922442:34922443:+_ENSG00000159140_ENST00000381679|hu_mus|FALSE|FALSE (ssRNA)
RNA: GGGAGUUCUACAGUCCGACGAUCCUCAGUAGGUGUCUCUGACACUAUCGUGAGGGUUUCUGAUGGCUCAACCACUUUUGCUAUGGGAAGCUCUACCAGCGUGGUCUUUGACGUCUCUGGAGGCAUAGUCUCCAAAGAUUUCAGCAACAGAGGAUUGAGCAUCA
B16: 40045834_40047000_1346_CDS_ENSMUSG00000026074_ENSMUST00000163854|mouse|control|control (ssRNA)
RNA: GGGAGUUCUACAGUCCGACGAUCGUUCUCCUGCUGCAGUCUCAGGAAAUCACGUCGCAGAGUUGACUCUCCAGGCACAUUGACGAUGGAACUUGGCUCUCCCUCCUGCUCAGGCACUUCCUCCUCCUCCUCCUCGCUCCCGCUCAACAGAGGAUUGAGCAUCA
B17: chr22:19452774:19452775:-_ENSG00000070010_ENST00000399523|hu_hu|hu_hu_hu_mus_False|68_78 (ssRNA)
RNA: GGGAGUUCUACAGUCCGACGAUCCUUCUCAUUGUAGUUGAUAGCAAUCACAUCUCCGGUGGUCAGACAGGCAAAGUUUCUCAAUGCAUUUUCUAAUACCGCUUUAGGGUUGGUAAUAUCCAGGAAGUCUGGGCUCUGAGGCUGCAACAGAGGAUUGAGCAUCA
B18: 195012529_195013098_2139_CDS_ENSG00000114331_ENST00000326793|human|control|control (ssRNA)
RNA: GGGAGUUCUACAGUCCGACGAUCCGUCACCAAAGAGCCCCCUAAUACAGCCUGAAUAAGUGGUGUCGCUUUGUUUUCCUCUGAAUUGGCCCAGUUCACGUCUGCACCAUGAGCCAAAGCCUCAGCCAUUUUAGGAAGGUUUUUCAACAGAGGAUUGAGCAUCA
B19: 135111016_135113250_72_ncRNA_ENSMUSG00000030795_ENSMUST00000128851|mouse|control|control (ssRNA)
RNA: GGGAGUUCUACAGUCCGACGAUCGGGUAGGAUAGGCCCCGUAGCUUUGAGUUGCUUGUUGGGUAUAGUCGUUUGAAGCCAUGUCCGCGCACGCGCGCAGCGCAGGCCGCCAAGCAACAAAGUUCCAGACGACCGCGAAGCGAUCAACAGAGGAUUGAGCAUCA
B20: chr6:89307369:89307370:-_ENSMUSG00000030084_ENSMUST00000163139|mus_hu|FALSE|FALSE (ssRNA)
RNA: GGGAGUUCUACAGUCCGACGAUCAGUACUGCCCAGGCCGUGGGGGCAGGACUGCACGCUGGGCGGCGGGUAGCACUUCUCGUUGUCCUCCACAGGGCCCGUGACGUGGGCCCGCAGCAGUGUCAGGUUCCCCGACAGCUUAUACAACAGAGGAUUGAGCAUCA
B21: chr11:106642794:106642795:-_ENSMUSG00000020719_ENSMUST00000021062|mus_mus|FALSE|FALSE (ssRNA)
RNA: GGGAGUUCUACAGUCCGACGAUCACUUUCCUUGUGUAAAAAUAAACACCAAAACAAAAAUCCCCCCCAAAAACACUAUCUAAGCCAAGUUGUACAUGACAUUAUAUAUGUAAAAUAAAGUACAAUUUCACUUAAUUCAGUCUUCAACAGAGGAUUGAGCAUCA
B22: 105956068_105956188_417_3pUTR_ENSG00000135974_ENST00000258457|human|control|control (ssRNA)
RNA: GGGAGUUCUACAGUCCGACGAUCAUCUCAUGUUGUUCUCUUUUCUUUUCCAUCAUUUUCCCCCAUCUAUUCUUCGGCAAAUCCCUCUGAGGCAAUGGUAUUGCAUGUUGGACAUAAAGGUCAGUAAGACUGUCUUUGUUUACUCAACAGAGGAUUGAGCAUCA

The assay has as its target T1, UNK ZnF1-3. Briefly: nsRBNS (natural sequence RNA bind-n-seq); RBNS binding buffer (assumed for nsRBNS): 25 mM Tris pH 7.5, 150 mM KCl, 3 mM MgCl2, 0.01% Triton X-100, 500 ug/ml BSA, 20 U/ml SUPERase-In, 4 C; UNK is unkempt and MSI1 is Musashi-1; names of the RNAs are library labels; protein concentration not given here; high values mean tight binding.
For B1, the binding signal was determined as 1.47 enrichment R. Under B2 stands 0.514 enrichment R. Under B3 stands 1.39 enrichment R; under B4, 1.24 enrichment R; under B5, 0.554 enrichment R. Then B6, with 0.828 enrichment R; and B7, with 0.74 enrichment R; and B8, with 1.05 enrichment R. Molecule B9 displayed a binding signal of 2.86 enrichment R. Then B10, with 1.52 enrichment R; and B11, with 1.4 enrichment R; and B12, with 0.656 enrichment R. Under B13 stands 1.19 enrichment R. B14: the binding signal came out at 1.24 enrichment R. B15 displayed a binding signal of 0.357 enrichment R. Molecule B16 yielded a binding signal of 1.07 enrichment R. B17: the binding signal worked out at 1.04 enrichment R.

For the molecule B18, the binding signal came to 1.04 enrichment R. Then B19, with 0.685 enrichment R. In turn, B20 registered a binding signal of 0.63 enrichment R.

B21 gave a binding signal of 1.63 enrichment R. Under B22 stands 0.422 enrichment R.
